This is one part of the list. At the low end of the ranking the order means little. The protein was read in a cell extract, so binding may be indirect.

Experimental findings from paper PMC10726135 are described below.

The experiment addresses T1, HNF4alpha8 (COS-7 nuclear extract) (UniProt P41235-5).
T1 sequence: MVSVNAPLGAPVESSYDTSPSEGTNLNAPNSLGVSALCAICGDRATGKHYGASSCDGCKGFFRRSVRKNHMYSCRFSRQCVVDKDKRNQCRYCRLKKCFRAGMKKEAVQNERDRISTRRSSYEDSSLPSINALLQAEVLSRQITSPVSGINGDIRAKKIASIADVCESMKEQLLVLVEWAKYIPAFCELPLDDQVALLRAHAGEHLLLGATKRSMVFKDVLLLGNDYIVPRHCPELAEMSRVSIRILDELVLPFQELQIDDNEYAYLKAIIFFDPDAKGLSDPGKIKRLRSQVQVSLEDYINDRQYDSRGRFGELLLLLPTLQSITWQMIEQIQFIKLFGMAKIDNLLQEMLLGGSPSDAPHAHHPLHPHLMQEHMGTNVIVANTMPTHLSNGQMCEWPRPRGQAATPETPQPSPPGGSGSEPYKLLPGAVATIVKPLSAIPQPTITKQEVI
Description: protein-binding microarray. The settings on record: COS-7 nuclear extract on double-stranded Agilent 4x180k PBM; binding buffer, salt, pH and temperature not given; high values mean tight binding; double strand, one strand shown; sequences stand for … in …GCCTAGGGAGATTAGAGTATCGGTCGA
On to AAGAGTGAATTCTGCAGCAGATGGCCAGCC, for which the binding signal (log2 normalized intensity) is -1.34.
The value for CAACATAGTGATTTAGGCTTTTGGGCCCTG was 0.116; that for CAGTATACTGACTTATCAGGGTTATTTGCT was -1.31.
The value for CTGTCTAGGCCAGAGTTCACTTTCCTCTCA was 1.58; that for AGATAGGACAGTGGTCTTTATGACTTGGGT was 1.4.
In the case of TAAAGTCCAAATTCCTTGGAATACATGGAA it was 2.17; in that of GTCTTACTAAATGCAGCCTTGGGCAAGTTA, -1.09.
Regarding TTGGGCCCTGTCTGATAAGGGTGTTTGTCC, the binding signal (log2 normalized intensity) is 1.45.
In the case of TCAGTATGAATGCCTTGGCCTCTGCAGACA it was -0.716; in that of AGACACACTCAGGCACTGGGATCCAAAGTT, -1.31; in that of ATAAAGTGATTAGTGCAAGAATCCAAGAAT, -1.4.
In the case of GTTGTCTGATGGCTGCTTCACACAAACATC it was -1.31; in that of CTCCCTGAAGAAACAGTCTTTGCTTTTTGA, 0.788.
In the case of CCAGATAAGACTATCTCATGACAGACCTAA it was -1.43; in that of TTGAACTGCTGGGGGTAAAGTGGATTGCTG, 0.866.
Turning to TCTCCTCTGCCACTGTATCAGGGAGATAGT, the binding signal (log2 normalized intensity) was -1.07.
In the case of GCAGAATTTCTTTTAATGTGTGCTTTCAGG it was 1.46; in that of AGCCTGTGGCCAGGCTGCGTTTCAAAGCCA, -1.4.
The value for CAACATTGTCCAGCAGACACGGGCAGGTGA was -1.36.
In the case of CCAGACAGGAGGATTCCTGATGCGTTCAAG it was -1.24; in that of GGTATGGATTCTGGGACCCACCCACCTATG, 0.692; in that of CCCTTCGCTCCCCGACCTCCTGCTGCAGCT, 2.08.
In the case of AGAAGAAAGCCCTTTTTGGAATGTGTTTGC, the binding signal (log2 normalized intensity) turned out to be 1.61.
For ACAGCAACTCAGGCAACAATGCCTTGTGTA, the binding signal (log2 normalized intensity) is -1.29.
As for GATTCTTACAGGCAATTGATAATGATGTTT, the binding signal (log2 normalized intensity) was 0.983.
The value for ACTGCATTCCCTTTCTCCTCCCCTCCCCTC was 4.48.
The value for TTGGAGTTGAGGTCAGACATGGCTGTATGT was 1.43; that for GTCTAATTGTGCTGAGAGAGTCCTTGTTTG was 1.67; that for TGGATGTTTCCTTTGAACTCTGCATCCAGG was 2.52.
The value for TAGCAATAATCTTTGAAATCTGCAAATAGA was -0.888.
As to AGTGTGTAAGTATGCTCACTGACCTCTGCC, the binding signal (log2 normalized intensity) worked out at 3.94.
The value for CAGTAGTTCTCCTTTCTGCCCTTTGAAGCA was 3.18; that for AGGAACTTGTTGGTAACCGGAGCAAAGGTT was 3.78; that for ACAAATGAAAGAGCTCAAATGACAGAACAG was -1.35.
In the case of GAAAAAAGCCAATCTCTCAAATCTAGCCAA it was -1.33; in that of TTGGTGTAACTCTGGGTCTGAGACCAAAGT, 2.02; in that of AGGGAAAAAATAATCAGCTTAAGCATACAG, -1.14.
In the case of GGTCTGTAGAAGGCGCTGTGAAGCACATCC it was -1.27.
In the case of ATTCTTAGACACAGTCTGAGATAGAAGGTC, the binding signal (log2 normalized intensity) was determined as 1.46.
The value for ACAACATTGAAAGCGATCTTTGCATTCCCA was 0.796; that for TGGGAGAGCACTTGGTGCCTCTGAGCTAAG was -1.34.
In the case of CTGAATCCAAAGGTCAATGCCAGGACCCTG it was 5.08.
In the case of GGAGTTTCCTGCCTGGTCCGCCCTTCCCCG it was 2.16; in that of GAACTGACAAGCAGTGACCAAGGGTCAGTT, 4.44.
Regarding GGGGCGGGGGTTGCAAGTCTGAGGCTGCTC, the binding signal (log2 normalized intensity) is -1.31.
Regarding ATCCCCAGCCACGCTCCTCTTATCATTAGA, the binding signal (log2 normalized intensity) was 0.793.
Consider AGCCGGCCTCTTAACAGATGAGGACATTTC, for which the binding signal (log2 normalized intensity) is -1.21.
The value for TCTGGACTTGGATCAGCCTGATTGAGTTCA was 0.925.
In the case of TTCACTAGACCTAGATAAGGGAGATGAAAG it was -1.35; in that of TGCTCTCTCATGCCCTTTGCCTCCCTGCAT, 3.97.
In the case of GGGGAAAGTCCACGTGAGAGGGTCGTGATC it was 1.92.
On to TAGGGGGATTCTGGCTAAACCAGCCTAACA, for which the binding signal (log2 normalized intensity) is -1.17.
The value for AACACAGAACTAGCCAGACCTGTTCCTCTG was -1.18; that for CTAGGGGAAACTGCTTTGGTTAATCATTAG was -0.655.
For TTCAGATGCAACACAGGGGGAGGAATGCTG, the binding signal (log2 normalized intensity) is -1.33.
The value for GGAAATCATCAGCACATTGGTGAGAATGGA was 0.391; that for CCACTCAGTCTCTTGAAATCCCAAGCAGTG was -1.22; that for TCCGCATCCTCAAGAAACACAGAACTATCA was -1.29.
GGCTGGAGAGGAGGTTATCTCGGGGCTGGC: the binding signal (log2 normalized intensity) is -1.13.
As to GAAGTTCTAGGAGCCTGGACATTTGCCACC, the binding signal (log2 normalized intensity) was found to be 0.908.
GGTTAATTCACATCTCCAGTTCCAAAGTCC: the binding signal (log2 normalized intensity) amounted to 6.39.
The value for GACCTTTGGACAGGGTGACGTCATTGGAAA was 6.22; that for GCAGAGGGAGGACAAAGTTCTGTCCTTTGT was 3.16; that for ACAGAAGCCAGAGGCAGCAAGGTCAAAGTG was 1.66.
The value for TCCACTGGACAGCAGCTACATAAGGGTAGA was -1.26.
The value for CGGTGTGAGTGGTCCTTATCAGCATGGGTC was 1.89; that for ATTGGAATGAGCCTCCTGAAGATCCCCTGT was 2.69.
Take AAGACATGAAAAGTGGAATGCGCTTTCATG: the binding signal (log2 normalized intensity) was -1.3.
On to GGCTTGAGCAGCTGGTGGAGGCGGTGCCAT, for which the binding signal (log2 normalized intensity) was -1.28.
The value for GTCTGAGATATCTTTCTCTATAGTAATCTT was 0.627; that for CCCATCACTACTCCAGGGAGAAACCTGCCA was -1.38; that for GGCATTCTGACCTTTGTCTCCAGGCAAACT was 5.6.
